Results as given in the supplement of paper PMC3334620.
In all, about 33,000 sequences were measured (“E-score (-0.5 to 0.5)”: median about -0.012, highest 2% from about 0.27 on). Some of the results follow.

target: T1, Vhr1 (UniProt P40522); assay: PBM E-score (8-mer binding enrichment) (E-score (-0.5 to 0.5)); higher = stronger / more preferred TF binding; most listed sequences are background and not binding sites; conditions: protein concentration: 200 nM; construct: GST-full length
T1 sequence: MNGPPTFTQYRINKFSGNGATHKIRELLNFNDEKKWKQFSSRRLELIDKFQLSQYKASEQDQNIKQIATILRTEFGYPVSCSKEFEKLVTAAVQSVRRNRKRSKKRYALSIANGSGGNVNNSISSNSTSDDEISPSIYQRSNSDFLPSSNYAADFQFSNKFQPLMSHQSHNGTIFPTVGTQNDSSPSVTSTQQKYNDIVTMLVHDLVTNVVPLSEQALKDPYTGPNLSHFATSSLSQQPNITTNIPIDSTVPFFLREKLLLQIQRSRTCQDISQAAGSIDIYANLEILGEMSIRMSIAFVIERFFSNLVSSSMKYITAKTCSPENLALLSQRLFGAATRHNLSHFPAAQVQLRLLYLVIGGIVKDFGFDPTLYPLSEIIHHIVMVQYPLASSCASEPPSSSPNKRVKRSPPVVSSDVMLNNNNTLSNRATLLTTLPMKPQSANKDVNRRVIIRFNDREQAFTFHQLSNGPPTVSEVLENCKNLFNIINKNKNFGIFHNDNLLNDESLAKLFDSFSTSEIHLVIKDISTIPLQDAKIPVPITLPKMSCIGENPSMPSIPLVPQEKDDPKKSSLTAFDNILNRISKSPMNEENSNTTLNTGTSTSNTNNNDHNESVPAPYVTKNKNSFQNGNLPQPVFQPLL
In short: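 GST-tagged yeast TFs (full-length or DNA-binding domain) were made by PURExpress in vitro transcription/translation and applied at about 100-200 nM to universal all-10-mer Agilent arrays. The arrays were made double-stranded by primer extension, on fresh or once-stripped slides. Bound protein was detected with fluorescent anti-GST, and scans were normalised with masliner. Each ungapped eight-base word, pooled with its reverse complement, received an E-score (modified Wilcoxon-Mann-Whitney statistic) from the Universal PBM Analysis Suite.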

Sequence | PBM E-score
GAACGGAA | -0.112
CCCTGGAC | -0.116
GCCTATTA | -0.0128
CACGACAG | 0.0224
CATGAACA | 0.0728
AATTCTCC | 0.0229
GCCACCCC | -0.0413
ACAGACGT | 0.048
CACATATA | 0.15
TGAAGTCA | 0.208
CATTGATA | 0.068
ATACCCGC | 0.169
CTACGGGA | -0.0509
AGTCGAAG | -0.0128
ACCTCGCT | 0.0865
ACCGCACT | 0.12
CCTATTTA | -0.0433
AGGAACCC | -0.112
AATAACAG | 0.0471
CAACAGGA | -0.112
TATATAGA | 0.126
AGGTGCGG | 0.057
GGTGCACA | 0.0381
ATCGAAAG | -0.0809
AAACATTT | -0.149

Sequence | PBM E-score
AAGACAGA | -0.105
GTTCGAAC | 0.164
CTTAAGGA | -0.169
ATGCTCTC | -0.0255
ACGTGGCG | -0.202
ACGTGGTC | -0.0211
AGTTAATG | 0.11
ATTAATCC | 0.0984
CCCACGCA | 0.0726
TCTGCTAA | -0.23
ACACTTAA | -0.0332
AACCCCGT | 0.139
ATGTAGGG | -0.124
ACTGGATA | 0.198
CTTGCTAC | -0.031
TCGTTTCA | 0.0487
CGAGTCGA | 0.224
ACATTGCC | -0.0607
CGGGAGAG | -0.0482
AGCGAATC | 0.0953
GATACTCC | 0.0481
GCCTAGAC | -0.0939
CAGTATAA | 0.0454
AAACAGTC | 0.105
CTCGCAAC | 0.00997

Sequence | PBM E-score
GCCTACGC | 0.00302
AATAATAG | -0.0397
CATCGCGC | 0.104
AAAGTATG | 0.0441
ACGTGGTA | 0.038
CAAAAAAG | -0.111
GATACCAA | 0.099
CTTGACGA | -0.0669
CGCAGCAG | -0.0145
GTGCCGAA | -0.112
AGGCAGGA | -0.0482
AAGAACAG | 0.00088
AGTTGTAC | -0.0186
CGAGAGTC | 0.203
CGGCTTAC | -0.0374
AAGGAAAT | -0.117
ATCTGTCC | -0.0732
AGGAGGGG | 0.284
AACTCGCA | -0.0141
GCACATTA | -0.0215
AAATTGAA | -0.175
CTCACGAA | 0.0327
CCTAGCCA | -0.219
ATATGGGA | 0.129
AAGAGAAC | -0.147

Sequence | PBM E-score
CAAAGAAG | -0.349
CCATGGAG | 0.101
GACAGCAC | 0.102
GACAGAAA | 0.0117
AGCGGGTC | -0.141
TAGAGATA | -0.0927
CCGACGTC | 0.0678
ACTCCTCT | 0.0797
CTATTCTC | -0.0617
CTGGGCAC | -0.152
CATACTAA | 0.135
ACTGATAA | 0.134
CATGTTAG | -0.174
ATGATTTG | 0.172
AGCCGGCA | -0.12
AGAGCGAT | -0.0801
ATCTCAGG | -0.0729
AGCCAACA | -0.166
ACCAAAGC | -0.0295
AGGGTGGG | 0.282
ACGCGTGC | -0.136
ATCACGTA | -0.0139
GCCACACC | 0.134
ATTTGTAG | -0.154
GCACGTCA | -0.153

Sequence | PBM E-score
CCTACAAC | -0.0753
TATTATGA | 0.171
GCCTGCCC | -0.118
AACCGCGG | 0.225
CTGAGTTA | -0.0121
CGGGAGGC | -0.129
ATTGGATC | 0.112
TGGTACAA | 0.0595
ACTAATCC | 0.141
CACTTTGA | -0.195
CGAATTTA | -0.067
GCAATGTA | -0.054
ACCCCTGC | -0.143
TAGGCATA | -0.0636
GCATTGGC | -0.171
AAGCGCCT | -0.204
GAGGGCCC | -0.0931
AGGCTCAT | 0.109
ACCAGAAA | -0.233
CCCTCCAA | -0.0124
ACTATCTG | 0.00954
AAGTGCAT | -0.123
GCGTTAAC | -0.128
CTTTATGC | -0.193
ACATCGAG | -0.0529

Sequence | PBM E-score
TTGTAAAA | -0.0435
ACAGAAAT | -0.136
TCGAAGAA | -0.0628
ACCTGTAA | -0.15
CCCAGTAA | -0.0498
CCATACAC | 0.163
AGCGCGAG | 0.00147
AAGCCACG | -0.0768
AAATTGGC | -0.168
AACGGCTG | -0.144
ATTCGCAG | 0.0181
ACAAGGAG | 0.0796
AAGTTAGA | -0.0297
ACAAGATG | 0.103
CGAGATAG | -0.197
TAATCCGA | 0.0399
CTTAAAAG | -0.239
CTAATGAG | 0.0521
ATGTTACC | 0.0597
CCGCACGA | -0.036
ATAGCACG | -0.145
AGTGCGCG | 0.0395
GTGATCAA | -0.0402
GTGGACTA | 0.147
GGCAGGCA | -0.175

Sequence | PBM E-score
CCTCAAGC | -0.156
AAGCGGTG | -0.183
CAAATAAA | -0.117
ACGCGCCT | 0.0318
GTGCGGGA | -0.112
CCCATGAC | 0.332
AAGGTATT | -0.193
AAAACGTT | -0.0927
ACCGGATA | 0.0413
CAATAGTC | 0.183
GCCCGTGA | 0.0738
GCGAGCCC | 0.182
AATAGTCG | 0.148
CGGTAACA | -0.0396
CCTAGATA | -0.141
AGCTCATA | 0.112
ACACAACT | 0.0908
AGCATTGA | -0.0743
AGGGAGCA | -0.149
TTCGTAAA | -0.253
CTGTAGGA | -0.0533
AAGAGGCG | -0.179
